Measurements taken from publication PMC10726135.
Some of the results follow. At the low end of the ranking the order means little. The protein was read in a cell extract, so binding may be indirect.

Each sequence was assayed against T1, HNF4alpha2 (COS-7 nuclear extract) (UniProt P41235) (assay: protein-binding microarray). Settings: COS-7 nuclear extract on double-stranded Agilent 4x180k PBM; binding buffer, salt, pH and temperature not given; high values mean tight binding; double strand, one strand shown; sequences stand for … in …GCCTAGGGAGATTAGAGTATCGGTCGA.
T1 sequence: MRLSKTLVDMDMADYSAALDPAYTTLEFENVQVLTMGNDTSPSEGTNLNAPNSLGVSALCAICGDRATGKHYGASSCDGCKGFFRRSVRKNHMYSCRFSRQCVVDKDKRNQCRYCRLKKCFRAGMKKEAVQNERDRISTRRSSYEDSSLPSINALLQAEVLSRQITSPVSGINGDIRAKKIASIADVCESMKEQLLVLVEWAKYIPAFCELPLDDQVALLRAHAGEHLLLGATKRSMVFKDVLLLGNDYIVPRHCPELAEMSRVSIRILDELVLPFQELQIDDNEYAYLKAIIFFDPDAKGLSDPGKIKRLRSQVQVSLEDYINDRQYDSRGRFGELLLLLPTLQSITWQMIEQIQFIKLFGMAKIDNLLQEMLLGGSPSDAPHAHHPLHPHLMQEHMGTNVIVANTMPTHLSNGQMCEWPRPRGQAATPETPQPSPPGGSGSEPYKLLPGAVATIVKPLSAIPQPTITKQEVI

Sequence	binding signal (log2 normalized intensity)
GCCACCCTGAAGGCTGAGCCTAGGAGTTCA	-1.19
TATCAGAAGCTTACATATCACTTCCATCAG	-1.05
GTCTTCATGGGCAAATAAAGCTAACCAGCT	-0.966
GAGCAGGGATTGGGGATGCTCAAAGTACAC	1.66
TAAGGTCCTGTTTGTCAGCATCTTCACCGT	1.32
AAAACTGGCCCTGATTTCAAAGTTCAGTTT	2.73
AGCCGTTTCTGTCCAGAGTTTAAATGACCT	3.45
GGTCCTAAGACTAACCTTTGACCATCCACG	5.96
AGATCTGGATATGCCTGGGGTTCCAGTTAC	0.693
TGCCCTGAGCCGCCAGGCGGGTTCTGCCAT	-1.08
GGAGGTAGGGCAAGAGGACAAGGTTCAAAA	2.52
GGTTGCAAAAACAATCAGGGGTTAGGGTGA	-1.03
AGATAGCATTCCAAGAGAGCAAAGTGCTTT	0.587
GCCAGAACTGAGCCCTGGTTTATCTGTTGT	0.938
CCTGGGCATGTCTGCTCCCTGAGTTTCTGC	0.189
ACCAAAGCAGCTAGCAAATACAAGGACACT	-1.05
TTACAATGGAAAGATTAGGTCAAAGGGCGT	5
GGCAGAGCATAGAAGTAAGAAATCAGGAGC	-1.21
GCAGCTCTTTACAAAGCCCATGCTGGACCC	3.94
CCTTCTGTTAGAATGTATTGAGAAGAAACC	0.656
AGTGTAAGATAAAAATCAGAGATCAAGATA	-1.06
CTTTGACCCTGTTTTGTAAACTCCCTTTGA	1.78
ACACAGGACTTGATCCAGGGCAAAGGTCAT	7.38
CAAAATATCTCACTCCCACACTGGTAACCT	0.649
TCTCATGGCTCATTTTGGGCATCTGCAGGG	1.53

Sequence	binding signal (log2 normalized intensity)
CTTTGCTTTGAGAAAGCAAAGTCCCTGGGG	1.22
GATGTGGAATGAAACCAGTTTCAAAACCTG	-1.21
CAGAGCCTGCCCCCGGGGCCGCCTTGGAAA	0.0699
CTCCCTTTTCAACAATGTTATCTTTTCAAG	1.07
GTCATAGCTTTATCTCTCCCCCACCACTGC	4.95
GGCAGTCGGGAAATTCCAGCAGGAATTGAT	-1.18
TTCCATACCAAAGACTGAGCAGCTGGAGGG	-1.18
AAACCTTCCAAAGTTCAACCTCATTATCTT	2.21
ATTAAGAGGCTACAACCAGACTTGGAGAGA	-1.3
CTAACCATAGGAGGCTGGTCTAAGTCCACA	1.94
ACTTTGGAATGGCAGTGCTTGTCCAAGATG	0.841
GGGTTAGGGTTAGGGTTACGGTTAGGGTTA	1.58
ATCAACTTTCAGAAGGGGACAAGCACATTA	-0.659
TACAAGGTCCATAAAACCAGTCAGGCAAAC	-1.21
GCAGAAATCAACTGCCCTCTGCCTTTCAGG	-0.661
AAGGGAGAAAGACATGTTTCTAACTGCCCG	-0.412
TCTGGGGTCCTCTGCTGCCCTCTAGGGTTG	1.41
CTCTCTGAAATGAAGGTCAGCAAATTTGTT	1.18
CTTCGTCCTGAGCAGTCCCTTCCCCCCTCC	5.36
GCAGAAACCATCTGGCTTGGCCCCCGGACC	3.35
CTGCTCAAAGGGGAAAGAGGGGGAAGAGAT	-1.12
CAGCAACACTCTACTACTTGACCTTTGAAA	6.06
TCTTAGGACCACATGAGTAAACAAGCTCTT	-1.07
GCTTTTCCATTGACAGTCCAAGGACTCAAT	-1.12
AAGAGATAGCGAGAAGGCAGGTAGAAGAAG	-1.14

Sequence	binding signal (log2 normalized intensity)
TTCCAGAAATCTGACCTCTGCCTCGGCCAC	1.91
GCTAAGATTGGACTCTGCACTCCAGCCTGG	4.7
AGAGATCAAAGGTGAGTGGGGAAAGAGCCC	1.91
CAGGGGTAAGTTTCTAACTACCATGAATTC	-0.788
TCAGACCACCAGCTGCTTCGGCCAGCACAG	-1.2
GATTTACATTGAGTTAACTATTGAGACTTT	1.77
ATCTTTCTGTCTCATTCCCTGACAGACCCC	3.76
ACTGCGGACATAGCTTGCCACAGCATGTTA	-1.19
CCCACTAGGCCAGCCCGAGCGCGTCTGCCA	-1.23
GCCCTCCTAGCAAACAATGAGGACGTGTGT	0.801
TTTAATGTATAAACCCTGAGGGTCAACACA	1.11
GGATGCCAAATTCCTCCCACTCTGACATCC	-0.153
AAGAGCAAACAATCAGTGAAATGCCAGTGG	-1.12
AGTGCTGTTTGCAAGGATTAAGTGAGATCA	1.33
AACAAACGACGCTCCTATCATCCCTATCAC	-1.15
AGAGTAGCTCCAAAAGGTGGACAAGACTGG	-1.07
GGCAGGACAGCAGGAGTGGGAGAAAGCTTT	-1.07
CCCCATGATGATAGCAAACACGATTGGATG	0.412
CATTCACATGACCTTTGTCCGTTCCTGCCT	5.92
GCAGGGAGAGTTGCACCCAGGCCGTTGGAC	-0.957
AATCCCATGCTGATGGCAAACACCTGGCCA	-1.2
GCTGTCTACTCTGGGGGTCAGCAATGGTAA	1.8
CTGGTGCCTCCTTATCTCCCCAACTGTAAA	3.35
CACAAAAGCTGCTGCCAAGCGTCAGTCATA	-1.09
ACGCTTGACTGGCTCCACCACTTTGCCTAT	-1.11

Sequence	binding signal (log2 normalized intensity)
GGACAGGCCAAATCCAGTAAGGCACGGAGT	-1.1
ATCTGAAGGAAATGGACAACGGAAAGACAG	-1.17
CTTGCATTTCTTCAGATGCAACACAGGGGG	-0.842
AAGAGGCTCTTCAATGCATTCCTGAAGCCT	-1.17
CCCTTTGGTCTGGAACACAGAGGGAAATGC	-0.845
GCCCAAAGGTCAGTCTGCAGCTAATAAACT	2.21
ATAAGATGTGTAAAACACAAATCTCCACAA	-1.18
GGACTTTGCTCTGCTCATTTTTCCCCTGAC	4.59
CCCCCAGTGGAATGTGCCCTTTGACCTCTC	9.72
CAGTGCTGCCATTTGAGGAGTGTTGAGATT	1.3
TCACAGTGCCTCTGCAAGTTGGCCTTACTA	-0.392
ACGGTGTCCCTGGCCAATCCCAGGGTCAGA	1.03
GCTAGAGGCCCTGCATTAAACAAGAGAGAG	-1.02
CACCTTTTTTGGCCTTTACCCCTTGAGTTT	3.93
TAAATGCAGTTTGTCAAGTGCCCGGATAAA	1.35
TGGTATGTTTGGATTGGGCAATGACCTGGA	2.18
AAAAGGGACAAAGGTGAGTGCAACCTTCTC	1.95
CCATTGTAGATTCAATAATACAAGAGGCTT	-0.887
TGTGTGCCTGAGAATGAGGGGCAGGCTTAG	-0.815
AGGCTAGAATGGAAACCAATAACTGCTTCT	-1.13
GAGAGTACACAGAAGTTAATTTCAAAACAA	-1.2
ACAGACATAAACACAGACACACATGAGCTA	-1.19
ATTGACCACCTCCTCTGAAGCTAGGACAAG	-1.06
AGAAAAATATGTGGACTTCAAAGGTACTTA	0.694
GTTTTCTGTCTTCATCCTGAGAGGGCTCAA	0.762

Sequence	binding signal (log2 normalized intensity)
GAGGAAAACTGGGCAAAGGTCAGGATCTCA	4.49
CTGCAGAGGCTGGTTCACACCCCACGTACA	1.79
GATTCCAGCTCTCGGATCCTCTGGGCTGGC	-1.08
CAAAGTCCACCTCAACCTCCCCCTGGGGAC	3.52
AGGAGCGAGTCAAGGGTCAATCCTCTCTTT	2.44
ACCCCTAATGAATGGCAAATTAAACAGCAT	-0.91
GACTTTGGTTGGATTTCTTGGCTTCTCTTG	1.04
GAAGACACAAAGCTTGGGTTCACATTCCAG	0.811
TGTGAATCTCCTGCTTTTGGAAAACTGGCC	-0.0827
GCTCAGAGGCACAGTCTGCTTTCAGAGATG	-1.08
AGGGGCATCCTCATTGCCTCTGGGCTTTGA	-0.381
GAACAGATATTGGCCAAAGGGCACAAGAGG	1.49
GGCAGCCAGCGCAGGGGCTTCTGCTGAGGG	-1.14
TGTGTCTCCAGGAGCAATCATCGCACCTAA	-1.15
TCAAGGTTTCTTTCCCTGGGGTCAATAGTT	3.59
GGAGGAAATAGAGAGCAGACAGGGGCTCAG	-1.23
TTTTTCTTTTTTTCCCCCTCACTGAATATG	4.18
TGGCTAAGACAGGGGCTATTTCTGACCTTT	6.5
CCACCCTATTGATGCAAGGACAATGTCTAG	0.506
TTTTAAAAGCCCTCAAATACTCTGAGTAAA	0.153
TGGGACTGATAACTTAGGCCCATATTCCTT	-1.04
CCTCATCTGAAAAAAGCTATCATTTGTCAC	0.778
TATTGTGGGTTCTTGCCCTTTGGTCTGGAA	4.36
CAGCTGACCAACAGAGAAGGCCCTGAACTC	-1.07
GGTTCTGGCACCTGAAGCTGCCCTTTGCAC	5.37

Sequence	binding signal (log2 normalized intensity)
TGAAGTCCAACCCTCCGTTTCTCTGGGCCT	-1.12
AAACTCCAAAGTCCATGCTATTAAGCACTA	3.04
CATAAAGGGTTGAAGAAAGATCACACAAAT	-1.04
CAGAAAGCAAGAGCACAAGAACAAAAACTG	-1.14
ATGAGCAAACAGAACTGTTAACTTTGTACT	1.87
CAGAGGGCTGCTTGCAGGAGGCCGGGCGCG	-1.18
ACATGTGCAAGGGCAGCTCCGTTTACCTAG	-1.11
CATTTATAGATAAGCACACTAAGGCTAAAG	-1.15
CCTGAGGTGTGAGAGGGCAAAGGTCACAGC	8.02
GAGTTTAGGCATTCTTAGACACAGTCTGAG	-0.227
GGGCCAGGAGCAGGAGCAGAAGCAGGCCTC	-1.03
TGGCTCCAAGGCTGAAGGTCTCGAGGCCTC	-1.18
GTTCAACCCTGAATGTGTGCTGGCCTGGTT	1.75
AGCCTTTTGTCCCAAGGAGAATTTCACAAA	0.557
AGGTGCAGAGAGGGGCAGGGTTCACATAGC	0.765
AGAGGTCGCGAGAGAACTGAAAAAGGGGAC	-1.15
GCCCATAGAATCTTAGGAAAGCACAGCTGA	-1.2
GCCCCCTCCCCCTGCCGGCGGCGCAGACGG	4.64
GTTTTATATGAAAACAAAGGAAACCAAACA	-0.611
CCAACAGGTCAGGGAGTAGGTTTGATTTGT	0.804
